Measurements reported in PubChem BioAssay AID1347165 (National Center for Advancing Translational Sciences (NCATS), 2019).
Hit rate of the full screen: of about 220,000 compounds, about 5,700 (2.6%) were called active. The shares of active, inactive and inconclusive entries below differ from those in the screen. The call rests on the fitted dose curve; in most records, active means well fitted inhibition curve with a large enough effect; inconclusive means small, poorly fitted or top-dose-only effect; inactive means no such curve, though single readings can be large or run the other way. Where the call is inconclusive, the potency comes from a doubtful curve fit.

target: Lysine-specific demethylase 5B (Homo sapiens) (UniProt Q9UGL1); assay: Primary screen for KDM5B Histone Demethylases FDH-coupled qHTS; conditions: FDH-coupled NADH fluorescence (FDH is formaldehyde dehydrogenase); activity change, negative = inhibition: at 57.7 µM (top of the series) unless noted; further: nearly all actives have a fitted effect of over 70% in size; on activity change, negative = inhibition: 0% is about no effect
Chain of UniProt Q9UGL1 (Q9UGL1 whole entry, looked up, the tested form may be a part): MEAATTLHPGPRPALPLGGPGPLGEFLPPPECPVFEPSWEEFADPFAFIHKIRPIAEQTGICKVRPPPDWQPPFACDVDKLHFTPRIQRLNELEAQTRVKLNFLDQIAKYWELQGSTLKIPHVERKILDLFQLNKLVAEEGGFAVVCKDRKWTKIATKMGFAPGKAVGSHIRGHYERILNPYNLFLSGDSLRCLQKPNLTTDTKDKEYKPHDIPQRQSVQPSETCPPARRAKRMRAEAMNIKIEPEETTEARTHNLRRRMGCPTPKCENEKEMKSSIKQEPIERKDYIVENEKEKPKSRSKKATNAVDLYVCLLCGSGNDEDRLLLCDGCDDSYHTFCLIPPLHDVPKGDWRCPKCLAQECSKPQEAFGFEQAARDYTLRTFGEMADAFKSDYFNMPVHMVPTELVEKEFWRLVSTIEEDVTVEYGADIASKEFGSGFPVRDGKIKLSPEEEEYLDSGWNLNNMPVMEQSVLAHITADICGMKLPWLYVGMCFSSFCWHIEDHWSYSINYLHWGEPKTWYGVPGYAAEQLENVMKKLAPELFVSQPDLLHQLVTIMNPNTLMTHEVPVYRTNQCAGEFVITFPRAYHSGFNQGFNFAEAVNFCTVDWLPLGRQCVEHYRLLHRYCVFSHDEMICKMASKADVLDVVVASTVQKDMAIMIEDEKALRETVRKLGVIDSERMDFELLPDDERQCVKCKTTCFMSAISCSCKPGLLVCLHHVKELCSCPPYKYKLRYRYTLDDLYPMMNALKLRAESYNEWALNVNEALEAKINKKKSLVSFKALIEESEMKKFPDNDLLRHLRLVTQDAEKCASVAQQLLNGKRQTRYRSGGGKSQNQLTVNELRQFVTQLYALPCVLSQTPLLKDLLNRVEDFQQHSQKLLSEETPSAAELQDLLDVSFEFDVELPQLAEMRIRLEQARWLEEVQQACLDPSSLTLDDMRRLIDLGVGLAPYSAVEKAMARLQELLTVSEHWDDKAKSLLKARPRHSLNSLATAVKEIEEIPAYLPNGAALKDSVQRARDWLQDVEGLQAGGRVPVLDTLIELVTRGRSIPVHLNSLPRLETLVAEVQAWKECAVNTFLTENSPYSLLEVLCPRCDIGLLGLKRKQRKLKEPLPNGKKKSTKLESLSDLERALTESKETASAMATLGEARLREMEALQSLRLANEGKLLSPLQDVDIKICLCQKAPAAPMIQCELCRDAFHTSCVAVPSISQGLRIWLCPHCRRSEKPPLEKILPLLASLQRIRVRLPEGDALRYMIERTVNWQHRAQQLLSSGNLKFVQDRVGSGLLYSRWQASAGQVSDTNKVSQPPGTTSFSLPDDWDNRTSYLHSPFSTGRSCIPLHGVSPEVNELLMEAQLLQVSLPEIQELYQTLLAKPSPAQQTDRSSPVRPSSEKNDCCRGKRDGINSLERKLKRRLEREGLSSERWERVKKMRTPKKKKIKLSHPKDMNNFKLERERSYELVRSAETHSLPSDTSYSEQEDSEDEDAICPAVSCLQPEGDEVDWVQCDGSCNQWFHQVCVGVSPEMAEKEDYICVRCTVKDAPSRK
Outline: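 Inhibition is measured as reduced NADH fluorescence generation from FDH coupling to formaldehyde release. Truncated KDM5BΔAP at 200 nM final acts on H3K4me3 peptide (12.5 µM in substrate mix) in pH 7.5 HEPES buffer with Tween-20, 30 min, room temperature.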
Potency means the concentration at half of the fitted maximal effect; tags describe the fitted curve by direction and shape.

Compound | Potency | activity change, negative = inhibition
Cc1ccccc1-c1cccc(CCOc2cnc3c(ccn3CC(=O)O)c2)c1 | active: 39.8 µM | 
CCn1c(=O)c(=O)[nH]c2cc(C(=O)N3CCC4(CC3)OCCO4)ccc21 | inconclusive: 22.4 µM [inhibitor, partial curve, poor fit] | 
COc1ccc(OC)c(CCNC(=O)c2ccc3c(c2)c(C)c(C)n3Cc2ccccc2)c1 | inconclusive: 15.8 µM [inhibitor, partial curve, poor fit] | 
COc1cc(NC(=O)CN2C(=O)c3ccccc3Sc3ccc(C(=O)N4CCCC4)cc32)cc(OC)c1 | inconclusive: 31.6 µM [inhibitor, single point] | 
CN(C)CCNC(=O)c1cc2cn(C3CC3)cc2s1 | active: 12.6 µM | 
O=C(NC1CCN(c2cc(-c3ccccc3)[nH]n2)CC1)c1ccc2ccccc2n1 |  | inactive: -37.2%
C(=C\c1ccccc1)/CN1CCN(c2nccc(-c3cccnc3)n2)CC1 | inconclusive: 28.2 µM [inhibitor, partial curve, poor fit] | 
O=C(CS(=O)(=O)Cc1ccccc1)Nc1cc(F)cc(F)c1 | inconclusive: 12.6 µM [inhibitor, partial curve, poor fit] | 
COc1ccc(-c2nc(CSc3nncn4c3cc3oc(C)cc34)c(C)o2)cc1 | inconclusive: 3.16 µM [inhibitor, full curve, poor fit] | 
CCOc1ccc(CN2CC[C@@](C)(O)[C@H](N3CCCC3)C2)cc1OC | inconclusive: 25.1 µM [inhibitor, partial curve] | 
COc1ccc(CN2C(=O)CO[C@H]3CN(C(=O)NCc4ccccc4)C[C@H]32)cc1 |  | inactive: -12.9% [at 86.2 µM]
Cc1c(C(=O)NCc2ccc(Cl)cc2)sc2nc3n(c(=O)c12)CCCCC3 | inconclusive: 35.5 µM [inhibitor, single point] | 
COC(=O)c1ccc(NS(=O)(=O)c2ccc3ccccc3c2)cc1 |  | inactive: -10.2%
Cc1ccc(OCc2nc(C3CCCCN3C(=O)c3cc(F)ccc3F)no2)cc1 (stereo not drawn) | inconclusive: 17.8 µM [inhibitor, partial curve] | 
Cc1c(Cl)cccc1NC(=O)Cn1c(=O)n(Cc2ccco2)c(=O)c2sc3ccccc3c21 | inconclusive: 15.8 µM [inhibitor, partial curve, poor fit] | 
O=[S+]([O-])(c1cccnc1)c1nnn2c1nc(NCc1ccncc1)c1ccccc12 |  | inactive: -18.3% [at 115 µM]
CCc1nn2c(-c3ccccc3OC)ccnc2c1-c1ccccc1 |  | inactive: -10.1%
COc1ccc(Nc2nc(N3CCOCC3)c3cnn(C)c3n2)cc1 | inconclusive: 39.8 µM [inhibitor, single point] | 
Cc1nc2scc(CC(=O)NCc3ccco3)n2c(=O)c1-c1cc(C)n(-c2cccc(F)c2)n1 | inconclusive: 28.2 µM [inhibitor, partial curve, poor fit] | 
CC(=O)N1C[C@@H]2CCCN3CCC[C@@H]([C@H]23)[C@H]1CCCC(=O)NCCCN1CCOCC1 | inconclusive: 20 µM [inhibitor, single point] | 
NC(=O)c1ccc(OC2CCN(C(=O)c3ccccc3Cl)CC2)nc1 |  | inactive: 22.1%
Cc1cccc(OCC(=O)NCC(=O)N/N=C/c2cc(Br)cc(Br)c2O)c1 | inconclusive: 14.1 µM [inhibitor, partial curve, poor fit] | 
CCCc1nn2c(=O)cc(COC(=O)c3cccc(NC(=O)c4cccs4)c3)nc2s1 | inconclusive: 15.8 µM [inhibitor, partial curve, poor fit] | 

Compound | Potency | activity change, negative = inhibition
CCc1cccc(C)c1NC(=O)CCS(=O)(=O)c1cc(Br)cc2c1N(C(=O)C1CC1)CC2 |  | inconclusive: -33.1% [inhibitor]
COc1ccc(OC)c(C(=O)NCC2(c3ccc(F)cc3)CCOCC2)c1 | inconclusive: 31.6 µM [inhibitor, partial curve, poor fit] | 
CC(NC(=O)Cn1nc(-c2ccc(F)cc2)oc1=O)c1ccccc1 (stereo not drawn) |  | inactive: -17.5%
CC(C)c1ccc(NC(=O)N2CCN(C)C3(CCC(=O)N(C)CC3)C2)cc1 (stereo not drawn) |  | inactive: -27.5%
CCCn1c(=O)c2ccccc2n2c(SCCNCCO)nnc12 | inconclusive: 22.4 µM [inhibitor, partial curve, poor fit] | 
O=C(NCCc1ccccc1)Nc1c(NC2CCCC2)c2ccccc2oc1=O |  | inactive: -19.9%
Cc1cccc(NC(=O)COc2ccc(/C=C(\C#N)C(=O)N3CCOCC3)cc2)c1 | inconclusive: 35.5 µM [inhibitor, single point] | 
O=C(NCc1ccncc1)C1CN(Cc2ccccc2Br)CC12CCOCC2 (stereo not drawn) | inconclusive: 39.8 µM [inhibitor, single point] | 
COc1ccc(CCN(C)C(=O)C2CCCN(Cc3ccccc3)C2)cc1OC (stereo not drawn) | inconclusive: 17.8 µM [inhibitor, partial curve, poor fit] | 
Cc1ccccc1Nc1c(-c2ccc(Cl)cc2)nc2c(C)cccn12 | inconclusive: 15.8 µM [inhibitor, partial curve, poor fit] | 
N#Cc1cccc(NC(=O)Cc2ccc3c(c2)CCC3)c1 |  | inactive: 14.4%
N#Cc1ccc(C(=O)NCc2coc(-c3cccs3)n2)cc1 |  | inactive: 4.81%
O=C(NCC1CC1)c1ccnc(-c2nnc3ccc(Nc4ccccc4)nn23)c1 |  | inactive: -26.5% [at 86.2 µM]
O=C(c1cscn1)N1CCc2nn(CC3CC3)c(=O)n2CC1 |  | inactive: -2.66%
CC(C)n1nc(OC(C)(C)C(=O)NCCc2ccccn2)c2cc(CN3CCOCC3)ccc21 | active: 28.2 µM | 
Cc1cccc(C(=O)N2CCc3cc(CNC(=O)COc4ccc(Cl)cc4)ccc32)c1 | inconclusive: 28.2 µM [inhibitor, partial curve, poor fit] | 
CCN1c2cc(C(=O)Nc3ccc(F)cc3)ccc2C(=O)N2CCCC21 (stereo not drawn) | inconclusive: 25.1 µM [inhibitor, partial curve, poor fit] | 
COc1ccc2nc([C@H]3CCN(Cc4ccc(C(=O)O)cc4)C3)[nH]c2c1 | inconclusive: 35.5 µM [inhibitor, single point] | 
CCCCCC(=O)Nc1ccc2oc(-c3ccncc3)nc2c1 | inconclusive: 17.8 µM [inhibitor, partial curve, poor fit] | 
CCOc1ccc(NC(=O)Cn2c(=O)n(-c3cccc(Cl)c3)c(=O)c3c2c2cc(C)ccc2n3C)cc1 | inconclusive: 17.8 µM [inhibitor, partial curve, poor fit] | 
COc1ccc(CNC(=O)Cc2ccc(NC(=O)N3CCSc4ncccc43)cc2)cc1OC | inconclusive: 12.6 µM [inhibitor, partial curve, poor fit] | 
O=C1c2ccccc2CN1C(CO)c1ccccc1 (stereo not drawn) |  | inactive: 22.4%
CCc1ccc(C(=O)NC2CCN(c3cc(-c4ccc(OC)cc4)[nH]n3)C2)cc1 (stereo not drawn) | inconclusive: 3.55 µM [inhibitor, full curve] | 

Compound | Potency | activity change, negative = inhibition
CCOC(=O)c1ccc(-c2ccc(/C=C/C(=O)c3ccccc3)o2)cc1 | inconclusive: 8.91 µM [inhibitor, full curve, poor fit] | 
Cc1ccccc1N1Cc2c(ncnc2N2CCC(O)CC2)N(C)CC1=O |  | inactive: -11.2%
COc1ccc(OCc2nc(C)c(CCO)c(=O)n2CC(=O)Nc2ccc(C)c(C)c2)cc1 |  | inactive: -7.93%
Cc1ccc(-n2ncc3c(NCCO)ncnc32)cc1Cl | inconclusive: 31.6 µM [inhibitor, partial curve, poor fit] | 
COc1ccc2c(C)c(CC(=O)NCCc3ccccc3)c(=O)oc2c1 | inconclusive: 2 µM [inhibitor, full curve, poor fit] | 
CCc1cc(CC)c2c(=O)c3ccccc3sc2c1 | inconclusive: 35.5 µM [inhibitor, single point] | 
CN1CCC([C@@H]2CN(C(=O)c3ccccc3Cl)C[C@H]2C(N)=O)CC1 |  | inactive: -15%
Cc1ccc(CN2CCCC(Cc3ncc(C)n3Cc3ccccc3)C2)o1 (stereo not drawn) | inconclusive: 11.2 µM [inhibitor, partial curve] | 
CCOC(=O)C(C)Oc1cccn2c(=O)c(-c3cc(C)n(-c4cccc(F)c4)n3)c(C)nc12 (stereo not drawn) | active: 25.1 µM | 
CC(C)CCN1CC2(CCCN(S(=O)(=O)N3CCOCC3)C2)CCC1=O (stereo not drawn) |  | inactive: -18.2%
CCN(CC)c1nc2ccccc2nc1C(=O)Nc1cccc(C)c1 |  | inactive: -5.1%
CCn1cc(CN2CCCC(c3nc(-c4cnccn4)no3)CCNC(=O)CC2)c(C)n1 (stereo not drawn) | inconclusive: 31.6 µM [inhibitor, partial curve, poor fit] | 
CCCc1noc(-c2ccn3c(CNC(=O)c4cccnc4)nnc3c2)n1 | active: 28.2 µM | 
CC(=O)N[C@H](CC(C)C)c1nc(-c2ccc(C)nn2)no1 |  | inactive: -14.5%
Cc1ccc(CN(C)C(=O)CS(=O)(=O)Cc2nc(-c3ccccc3)oc2C)cc1 |  | inactive: 10.5%
COc1cc(C2CC(=O)Nc3[nH]ncc32)ccc1OCc1ccc(Cl)cc1 (stereo not drawn) |  | inactive: 7.51%
CN1CCCC2(CCN(c3nc4c(cc3C(N)=O)CCC4)C2)C1=O (stereo not drawn) | inconclusive: 14.1 µM [inhibitor, partial curve] | 
CC(C)[S+](=O)([O-])N1CCC(c2nnc3n2C(C(=O)O)CC3)CC1 (stereo not drawn) | inconclusive: 89.1 µM [inhibitor, partial curve, poor fit] | 
O=C(Cn1c(=O)c2cccn2c2ccccc21)NCc1ccccc1F | inconclusive: 28.2 µM [inhibitor, single point] | 
CCN1CCN(c2nc3ccccc3nc2C(C#N)S(=O)(=O)c2ccc(Cl)cc2)CC1 (stereo not drawn) |  | inactive: -12.7%
NC(=O)c1ccc(NC(=O)CCC2CCCC2)cc1Cl |  | inactive: -10.8%
Cc1ccc(-c2cc(C(=O)NCCCN(C)C)c3ccccc3n2)cc1 | inconclusive: 20 µM [inhibitor, partial curve, poor fit] | 
